Reference: the supplement of paper PMC3334620
Over roughly 33,000 sequences, “E-score (-0.5 to 0.5)” has its median near -0.01; the highest 2% begin near 0.26. Some of the results follow.

Target: Ste12 (UniProt P13574)
Assay: PBM E-score (8-mer binding enrichment) (E-score (-0.5 to 0.5)); higher = stronger / more preferred TF binding; most listed sequences are background and not binding sites
Conditions: protein concentration: 200 nM; construct: GST-DNA-binding domain
Procedure, shortened: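 The E-score, a modified Wilcoxon-Mann-Whitney statistic, was computed by the Universal PBM Analysis Suite for every ungapped eight-base word pooled with its reverse complement. Scans behind it were normalised with masliner after bound GST-tagged yeast transcription factors were detected with fluorescent anti-GST. The proteins, at about 100-200 nM, had been applied to universal all-10-mer Agilent arrays made double-stranded by primer extension.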

Sequence	PBM E-score
GAAGGCCC	-0.226
CCTTCCCG	-0.123
GCGGGGAA	0.261
CGGGCCGA	-0.106
GGTTGTAA	0.0372
CCGAATGC	-0.0533
TCCTAGCA	-0.0629
TTCAAGAA	0.247
CCGTATAG	-0.0653
GTCTTTAA	-0.101
CCAGTACG	-0.0825
GCAGAAGA	0.0527
AGACATAA	0.101
CTACGTGC	-0.0642
ATTTTATG	0.248
AGTTAAGG	-0.0479
ATCGCGGG	0.0283
AGTCTGAG	-0.0101
CTATTTAA	0.194
ACTGCTCG	0.0382
TAGGAATA	0.00692
ACATAGCA	-0.115
CCTTCTGC	-0.143
AATTTGTA	0.217
TAGCTCGA	0.101

Sequence	PBM E-score
CTGATGGC	0.0625
ATTGTTAG	0.0697
GTATTCTA	0.149
AATTCGCG	0.0619
AGGATAAA	0.138
ACCAACGC	-0.0766
AGGAAACA	0.19
ACAACATA	0.0632
AATCAGCA	-0.0253
GACGACCA	-0.0719
GGCATCAA	-0.137
CAAATAGG	0.187
CTGCTCAC	-0.157
GAACTGTA	0.118
CTGTCAAC	-0.085
ACACGACC	-0.0235
GTAGTGCA	-0.0696
AGACTTGG	-0.11
CCATCACG	-0.0498
GCAGAACC	-0.151
CAAATTCG	0.124
TCAAAAGA	0.202
GCCGGTAA	-0.00694
CCGGCCTC	-0.00735
CATCTCGA	0.00363

Sequence	PBM E-score
AACTAACT	-0.0673
ATAGTTCC	0.154
ACCTGCGA	-0.0253
GTCTTACA	0.00293
ACAGCTTC	-0.063
GTGGCTGA	0.0345
GTAGGGAA	-0.0505
GATTCACA	0.0531
AAAACCTG	0.0562
GTCTCAAA	0.218
CAAAACCA	0.194
GAATCTTA	0.0953
ATAAGTGC	-0.189
CTCAAAAC	0.223
CCCTCGTC	0.0917
CGTCCTGA	-0.153
CAAACCTC	-0.105
CGGGATGA	0.00463
CAGTTTAG	0.0854
CTATTATC	0.126
AACGCTCA	0.00242
CCACTTAG	-0.179
CCTGCCCC	-0.0671
GACTCAAA	-0.0364
CTCTAAGA	0.0762

Sequence	PBM E-score
GATGAGTA	0.0183
CAGCGTCC	-0.0696
CAATCTGC	-0.0823
ATTCCGGC	-0.00497
CAAACACC	0.121
CATCTATA	0.0719
CCGCCCGG	-0.0452
GAGCAGTA	0.112
GCCTCAGC	-0.226
AATTATGC	0.187
AACGGTAC	0.0025
CTACTTTA	0.0872
CTCGTGTC	-0.0304
TGAGTCAA	0.0095
AGCCAGCA	-0.197
GCATTCGC	-0.276
AATGATCA	0.0798
CTCTACAG	-0.0448
CAGTTCTA	0.00621
AAGATTCT	-0.15
GGATGTAC	-0.226
GTTCACGA	-0.084
AAACGCGG	0.264
ATGGCTAA	-0.0443
ATAGCTAA	-0.0818

Sequence	PBM E-score
CCGCCGAC	-0.0352
GCAAATGC	-0.232
ATCGAATC	0.125
AATTAGGT	0.0624
CGGACGTA	-0.00701
CGTTAGTC	-0.149
ATCTCCCG	-0.0525
ACTAGGAA	-0.00085
AGCGACCA	-0.0697
CTCTGAAA	0.294
ATTAAGCC	-0.0447
AAGAGAGA	0.0604
GCCGGTAC	-0.13
GTATACAA	0.0647
GCGCATCC	-0.168
CCATTGGG	-0.159
GGCAGTAC	-0.259
ATTTCAAG	0.0717
GTACGGGA	-0.0885
AATCTCAC	-0.0196
ACATGTCC	-0.12
AAAAGCTT	0.124
CAGTACAA	-0.0966
CAGTGATA	-0.136
AATTTAAG	0.191

Sequence	PBM E-score
AATTCCAG	0.17
CATCCTCA	0.0342
ACGCCCTC	-0.035
ATTGGCTC	0.00068
CGAAGGTC	-0.0868
ATCGGGGG	-0.119
GACAAAAA	0.227
CGTTGCGC	-0.0144
GAATACAA	0.0373
AGCGAAAT	-0.0364
GCGAAAGA	-0.0959
CATTCCCG	0.195
ACTGTTCT	0.0329
CATTAACC	0.111
ATCAGTCG	0.0503
CCTACGTC	-0.16
ATGAATTA	0.0756
AAAACCAA	0.209
ATTCACTC	0.115
GTGTCAAA	0.169
AAAGGCCG	-0.0431
ACGAGACA	0.0298
ATACTTGG	-0.0285
GGGGAGTA	-0.00925
AATGGGTG	-0.0712

Sequence	PBM E-score
ATCTATGG	0.0194
CCGGTCCA	-0.206
AGCTTAGG	-0.055
ACCTAGAC	-0.17
CAGGTCCG	-0.107
AGTAGGAA	-0.0126
CGGGGGAA	0.0885
AGTAGGTC	-0.0912
AGGTCCCA	-0.0308
CCAGGTGC	0.0656
GGTGTGCA	-0.167
GTGAACCA	-0.00429
TACTCCTA	-0.266
CACGTTTA	-0.00355
CTCACCTA	0.0644
CTCCAAAC	0.127
CTAGTTCC	0.195
CGACGCCA	0.0868
AGTGTCCA	-0.0991
AATTGTAG	0.057
CCGCGAAG	0.0504
AAAAGCGG	-0.0462
